Assay results reported in the supplement of paper PMC3334620.
In all, about 33,000 sequences were measured (“E-score (-0.5 to 0.5)”: median about -0.01, highest 2% from about 0.26 on). This is one part of the list.

Molecular target: Ste12 (UniProt P13574)
Assay: PBM E-score (8-mer binding enrichment) (E-score (-0.5 to 0.5)); higher = stronger / more preferred TF binding; most listed sequences are background and not binding sites
Settings: protein concentration: 200 nM; construct: GST-DNA-binding domain
In short: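 E-scores (a modified Wilcoxon-Mann-Whitney statistic) were assigned by the Universal PBM Analysis Suite to every ungapped eight-base word pooled with its reverse complement. The input came from universal all-10-mer Agilent arrays made double-stranded by primer extension and probed with GST-tagged yeast transcription factors at about 100-200 nM. Fluorescent anti-GST detected bound protein, and masliner normalised the scans.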

In order of rising “PBM E-score” value:
1. GGTACCCA  -0.305
2. GGAACCAC  -0.299
3. GGGCTACC  -0.292
4. AGGGCATC  -0.286
5. AAGGGCCG  -0.262
6. CACGTAAG  -0.253
7. ACCTAGCG  -0.241
8. CCTAAAGG  -0.238
9. GGAGCCCC  -0.232
10. GCAAGTCC  -0.228
11. GAGGACCC  -0.227
12. CCCTGGGA  -0.226
13. CCACGGGC  -0.214
14. ATGACTCC  -0.203
15. ACGCAGCT  -0.196
16. CACTAGGA  -0.181
17. AGACACCT  -0.179
18. GGTAGGAA  -0.172
19. CCAAGGTC  -0.169
20. AAAAGCAC  -0.169
21. CTCTCCTC  -0.168
22. AGCAGCCA  -0.168
23. CAATGGAG  -0.164
24. CTCAAGAG  -0.163
25. GGAGCGCC  -0.162
26. CCCTGAAG  -0.161
27. AGCAATTG  -0.159
28. CGGTGGAC  -0.157
29. AGCATGCA  -0.152
30. CCAGTCCA  -0.151
31. GGCTCGAA  -0.146
32. ACCATAGC  -0.134
33. CCGCTGTC  -0.134
34. CGCTTAAG  -0.131
35. AGAAAGCC  -0.13
36. CACTCGAG  -0.129
37. CATCCAGG  -0.126
38. ACGCAGAA  -0.123
39. CTCTCAGC  -0.121
40. ATGTAGAC  -0.118
41. GTGACCTA  -0.117
42. CGTTCTAC  -0.113
43. ATTGACAA  -0.112
44. CCAGGATC  -0.112
45. GCTCCTTA  -0.11
46. CATGGGTA  -0.109
47. CCTGGAGA  -0.108
48. AGTCACCG  -0.096
49. CTCGGGCA  -0.0957
50. AGCTCTAA  -0.0946
51. ACATCGTC  -0.0946
52. ACCGCAGC  -0.0929
53. ACACGTTA  -0.0848
54. AGACTGCA  -0.0839
55. ACGGACTA  -0.0824
56. CAAAGAGC  -0.0793
57. CGTGGTAG  -0.0769
58. CCTCCGAC  -0.0722
59. CCCAAATC  -0.0715
60. AACAGGAA  -0.067
61. TGCACGCA  -0.0625
62. ATCTGATC  -0.0595
63. CGAGCCGA  -0.0584
64. GCGGTCTA  -0.0554
65. AACATGCC  -0.0549
66. AATACTTC  -0.0537
67. CACACGGA  -0.0528
68. GCCAGCCA  -0.0507
69. CCACTACC  -0.0452
70. ATCACTCG  -0.0351
71. CCTTACCG  -0.032
72. CGTAACCC  -0.0268
73. CCCGCTCG  -0.0264
74. CACGTGCG  -0.023
75. ATAATCAG  -0.0187
76. GCTTACAA  -0.0186
77. CACCTCCA  -0.0182
78. ATTGGACA  -0.0182
79. GTCTGGTA  -0.017
80. GGTGAATA  -0.0106
81. CGAGTCCC  -0.00746
82. CTTAGTGA  -0.00728
83. CAGTATAC  -0.00596
84. CCTTGTAC  -0.00301
85. AGCTCAGG  0.00027
86. AAAGGGAT  0.00067
87. AAGCCTGC  0.0008
88. GATGAAGC  0.00101
89. CAAATACG  0.00305
90. CTTGTTGC  0.00409
91. ATTCAGCA  0.0048
92. ATAGTACG  0.0104
93. ATTAGCCG  0.0107
94. AGCAGGTC  0.012
95. ATTACCAA  0.0123
96. AAGCACTA  0.0131
97. CCCGAGCC  0.014
98. GACTTGAA  0.0172
99. AAATTTGC  0.0182
100. CAATGATC  0.0182
101. CTAAATGC  0.0198
102. GACATGGA  0.0214
103. CATCTGTC  0.0223
104. CCGTCGCC  0.0242
105. CATTGTCC  0.0283
106. ATGTTAGA  0.0296
107. ATACCAGG  0.0311
108. AACTACGA  0.0326
109. AGCTGCAG  0.033
110. TCGCCCCA  0.0341
111. AAAGGGAA  0.0362
112. CGGGGTTC  0.0438
113. TCTACCCA  0.0452
114. AGCCTCGA  0.0456
115. AGAAACCC  0.0469
116. AAGCCAAG  0.0515
117. ATGTACCA  0.0535
118. GATCGATC  0.0593
119. ACAATTGA  0.0603
120. CAATAGGG  0.0628
121. CGTATGAC  0.0679
122. ATAGCTGG  0.069
123. AGATTAAC  0.0726
124. CACTAATA  0.0757
125. TATACCGA  0.0793
126. CCCCATAC  0.0796
127. AAGCCGGC  0.0834
128. GTTTAAGA  0.0839
129. CTATTATA  0.084
130. AACGAATG  0.0894
131. CCAAGAAA  0.0914
132. CCTCCTCC  0.0915
133. AGCGTATA  0.0962
134. AGTTTTGG  0.104
135. CCAGCAAA  0.105
136. CTAACACA  0.107
137. ATAGTTAG  0.114
138. AACGTTCA  0.116
139. TAACAACA  0.116
140. ATATACTC  0.118
141. TAACCGAA  0.12
142. TAGGATGA  0.127
143. CAACTACA  0.128
144. TACCCGCA  0.132
145. TATTGGCA  0.132
146. CCGCTACA  0.138
147. CTGCGACA  0.141
148. CATGCGTA  0.144
149. ATATTGTA  0.161
150. CGCTGATC  0.168
151. ACATTGTC  0.169
152. CATCGATG  0.17
153. AGTTTGAA  0.174
154. ACCCGCGG  0.176
155. CACTATAA  0.177
156. GTATTGTA  0.184
157. ATCAAAAT  0.192
158. TAATGTAA  0.194
159. AATACTAA  0.196
160. GAAAATAC  0.203
161. AGACCATA  0.211
162. AAACCCAC  0.211
163. CTTTTCAA  0.221
164. AAAAATTC  0.224
165. AAACAGAC  0.228
166. GATGTGAC  0.231
167. CAAGAAAA  0.24
168. GGGGGAAA  0.241
169. GTTTTAGA  0.253
170. AAATACTA  0.256
171. AAATCCGA  0.258
172. AGGGGCGG  0.452
